Results taken from EP0918774B9, “ANDROGEN RECEPTOR MODULATOR COMPOUNDS AND METHODS” (LIGAND PHARMACEUTICALS INCORPORATED, priority 1996, dated 1997).
Read-outs that look alike come from different tables or passages of the source.

Assays:
[1] = test system: Mouse Renal Ornithine Decarboxylase (ODC) Activity
[2] = test system: Mouse Renal Ornithine Decarboxylase (ODC) Activity; assay type: in vivo, castrated male ICR mice; settings: for % Inhibition of ODC Activity 1 day p.o.: negative number = no AR antagonist effect; for inhibition of ODC induction by testosterone propionate (in words): testosterone propionate 0.1 mg/mouse used to induce the enzyme activity
[3] = dose 1 mg/mouse, combined with TP 0.1 mg/mouse/day s.c.

`CCC(=O)O[C@H]1CC[C@H]2[C@@H]3CCC4=CC(=O)CC[C@]4(C)[C@H]3CC[C@]12C` [Testosterone Propionate, Testosterone propionate] was tested, and the “Mouse Renal ODC activity (fold increase compared to castrated control)” value ([1]; 0.01 mg/mouse, s.c. for 3 days) was 1 fold, the “Mouse Renal ODC activity (fold increase compared to castrated control)” value ([1]; 0.03 mg/mouse, s.c. for 3 days) was 10 fold and the “Mouse Renal ODC activity (fold increase compared to castrated control)” value ([1]; 0.1 mg/mouse, s.c. for 1 day) was 9.7 fold. The “Mouse Renal ODC activity (fold increase compared to castrated control)” value ([1]; 0.1 mg/mouse, s.c. for 3 days) was 173 fold, the “Mouse Renal ODC activity (fold increase compared to castrated control)” value ([1]; 0.3 mg/mouse, s.c. for 1 day) was 21.9 fold and the “Mouse Renal ODC activity (fold increase compared to castrated control)” value ([1]; 0.3 mg/mouse, s.c. for 3 days) was 414 fold. The “Mouse Renal ODC activity (fold increase compared to castrated control)” value ([1]; 1.0 mg/mouse, s.c. for 1 day) was 26.4 fold, the “Mouse Renal ODC activity (fold increase compared to castrated control)” value ([1]; 1.0 mg/mouse, s.c. for 3 days) was 707 fold and the “increase in ODC activity compared to castrated controls” value ([1]; text: highest dose, 1.0 mg/mouse/day) was 700 fold.
`CC(=O)O[C@]1(C(C)=O)CC[C@H]2[C@@H]3C=C(Cl)C4=CC(=O)[C@@H]5C[C@@H]5[C@]4(C)[C@H]3CC[C@@]21C` [Cyproterone acetate, cyproterone acetate, reference compound] was tested, and the “% Inhibition of ODC Activity 3 days p.o.” value [2, 3] was 81.7%, the “% Inhibition of ODC Activity 1 day p.o.” value [2, 3] was 91.1% and the “inhibition of ODC induction by testosterone propionate (in words)” value [2] was “inhibited this induction”.
In the case of `CC12CCCN1c1cc3[nH]c(=O)c(F)c(C(F)(F)F)c3cc1CC2` (racemic) [Compound 102, (R/S)-3-Fluoro-6,7,7a,11-tetrahydro-7a-methyl-4-trifluoromethyl-2-pyridono[5,6-g]pyrrolidino[1,2-a]quinoline], the “% Inhibition of ODC Activity 1 day s.c.” value ([2]; dose 1 mg/mouse, combined with TP 0.1 mg/mouse/day s.c., TP group 0%, castrated group 100% inhibition) is reported as 25.4%.
With `CC12CCCN1c1cc3[nH]c(=O)cc(C(F)(F)F)c3cc1CC2` (racemic) [Compound 101, (R/S)-6,7,7a,11-Tetrahydro-7a-methyl-4-trifluoromethyl-2-pyridono[5,6-g]pyrrolidino[1,2-a]quinoline] the “% Inhibition of ODC Activity 3 days p.o.” value [2, 3] was 26.2% and the “% Inhibition of ODC Activity 1 day p.o.” value [2, 3] was 31.7%.
In the case of `CC(O)(CS(=O)(=O)c1ccc(F)cc1)C(=O)Nc1ccc(C#N)c(C(F)(F)F)c1` (centres unmarked) [Cas, reference compound], the “inhibition of ODC induction by testosterone propionate (in words)” value [2] is reported as “inhibited this induction”.
For `CC(=O)[C@H]1CC[C@H]2[C@@H]3CCC4=CC(=O)CC[C@]4(C)[C@H]3CC[C@]12C` [Prog, progesterone], the “stimulatory activity on ODC” value ([1]; 1 mg/mouse) was “did not show any stimulatory activity”.
